Data from the supplement of paper PMC8277577.

B1: C1030 (protein)
chain 1: EVQLVESGGGLVQPGGSLRLSCEASGVIVSSNYMNWVRQAPGKGPEWVSVLYAGGSTFYADSVKGRFTISRDDSKNTLFLQMNNLRAEDTAVYFCARDLIAFGMDVWGQGTTVTVSS
chain 2: DIQLTQSPSFLSASVGDRVTITCRASQGINSDLAWYQQKPGKAPKLLIYGASTLQSGVPSRFSGSGSGTEFSLTVSSLQPEDFATYYCQQLNSYRRFGGGTKVEIK
B2: C1043 (protein)
chain 1: EVQLVESGGGLVQPGRSLRLSCAASGFIFDNYAMHWVRQAPGKGLEWVSGISWNSDSIGYADSVKGRFTISRDNAKNSLYLQMSSLRAEDTALYYCAKDLLGNYYYYTLDVWGQGTTVTVSS
chain 2: QSALTQPASVSGSPGQSITISCTGTSSDIGGNNYVSWYQQHPGKAPRLMIFDVSYRPSGVSNRFSGSKSGNTASLTISGLQAEDEADYYCISYTTSSTLGVFGGGTKLTVL
B3: C1041 (protein)
chain 1: QVQLVQSGAEVKKPGASVKVSCKASGYTFSDHYIYWVRQAPGQGLEWMGIINPSAGSTSYAQKFQGRVTMTRDTSTSTVYMELSSLRSEDTAVYYCARDIVFVPATMAMDVWGLGTTVTVSS
chain 2: EIVLTQSPATLSLSPGERATLSCRASQSVSRYLAWYQQKPGQAPRLLIYDASNRATGIPARFSGSGSGTDFTLTISSLEPEDFAVYYCQQRSNWLFTFGPGTKVDIK
B4: C1042 (protein)
chain 1: B3 chain 1 with A55G, R87K, A97S, L114Q
chain 2: B3 chain 2
B5: C1033 (protein)
chain 1: QVQLVQSGAEVKKPGSSVKVSCKASGGTFSRNVISWVRQAPGQGLEWMGGIIPMFGTANYAQKFQGRVTISADESTSTAYMELSSLRSEDTAVYYCAREDFILESAPIRENSYYYYGMDVWGQGTTVTVSS
chain 2: EIVLTQSPGTLSLSPGERATLSCRASQSVSSNYLAWYQQKPGQAPRLLIYDASSRATGIPDRFSGSGSGTDFTLTIRRLEPEDFAVYYCQQYGGSPRTFGQGTKVEIK
B6: C1036 (protein)
chain 1: EVQLVESGGGLIQPGGSLRLSCAASGLIVSRNYMNWVRQVPGKGLEWVSVMYAGGSTFYADSVKGRFTISRDDSKNTLYLQMNSLRPEDTAVYYCARESYGMDVWGQGTTVTVSS
chain 2: B5 chain 2 with V29I, N32T, D51G, R77S, G93V, G94T, R97W
B7: C1035 (protein)
chain 1: B6 chain 1 with I28T, V40A, A53S, D73N, P87A
chain 2: B5 chain 2 with V29F, N32T, D51G, R77S, G93V, G94T, R97W
B8: C1047 (protein)
chain 1: EVQLVQSGAEVKKPGESLKISCKGSGYSFISYWIVWVRQMPGKGLEWIGIIYPGDSDTIYSPSFQGQVTLSADKSISTAYLQWSSLKASDTAIYYCAKMVTSGTSYYETRGYASSGPFDNWGQGTLVTVSS
chain 2: DIQLTQSPSSLSASVGDRVTITCRASQGISSALAWYQQKPGKAPKLLIYDASSLESGVPSRFSGSGSGTDFTLTISSLQPEDFATYYCQQSDNFGPGTKVDI
B9: C1031 (protein)
chain 1: QLQLQESGPGLVKPSETLSLTCTVSGGSINTSTYYWGWIRQPPGKGLEWIGNIYYSGITYYNPSLKSRVTISVDTSKNQFSLKLRSVTAADTAVYYCARQHRFGSGSSELLWGQGTLVTVSS
chain 2: QSALTQPPSASGSPGQSVTISCTGTSSDVGSYNYVSWYQQHPGKAPKLMIYEVTKRPSGVPDRFSGSKSGNTASLTVSGLQADDEADYYCSSYAGSSNLVFGGGTKLTV
B10: C853 (protein)
chain 1: QVQLQESGPGLVKASQTLSLTCTVSGGSFRSGGYYYNWIRQHPGKGLEWIGYIFYTGVTYYNPSLKSRVSISVDTSKNQLSLNLTSVTAADTAVYYCARGSYSDYNGGWDYWGRGTLVTVS
chain 2: B9 chain 2 with T23I, S31G, Q40H, M49I, T54S, S97N, L99W
B11: C852 (protein)
chain 1: QVQLVQSGAEVKKPGASVKVSCKASGYIFTGFYMHWVRQAPGQGPEWMGWINPNSGGTNYAQKFQGRVTMTRDTSISTAYMELSRLRSDDTALYYCARGGQDELTGTFDVWGQGTMVTVSS
chain 2: SYELTQPPSVSLAPGKTASITCGGDSIGSKSVHWYQQRPGQAPILVIYYDGDRPSGIPERFSGSNSGNTATLTISRVEAGDEADYYCQVWDGGWVFGGGTKLTVL
B12: C1046 (protein)
chain 1: EVQLVQSGAEVKKPGESLKISCKGSGYSFTSYWIGWVRQMPGKGLEWMGIIYPGDSDTRYSPSFQGQVTISADKSISTAYLQWSSLKASDTAMYYCARMVTSGTYYYDNSGYSSSGPFDYWGQGTLVTVSS
chain 2: DIQLTQSPSSLSASVGDRVTITCRASQGISSALAWYQQKPGKAPKLLIYDASSLESGVPSRFSGSGSGTDFTLTISSLQPEDFATYYCQQFNNFGPGTKVDIK
B13: C1034 (protein)
chain 1: QLQLQESGPGLVKPSETLSLTCTVSGGSVSSNNHYWGWIRQPPGKGLEWIGSISSSGSTHHNPSLRSRVTISVDTSKNHFSLKLNSVTATDTAVYYCARVDSSGWYTGDVFDVWGQGTMVTVSS
chain 2: DIQMTQSPSSLSASVGDRVTITCRASQTINNYLNWYQQKPGKPPKLLIYAAFSLHSGVPSRFSGSRSGTDFTLTISSLQPEDFATYYCQHSYSTMCSFGQGTKLEIK
B14: C1032 (protein)
chain 1: EVQLVESGGSLVKPGGSLRLSCVASGLTFNHAWMSWVRQAPGKGLEWVGRIKSKIDGGTTDYAAPVKGRFTISRDDSKSTQYLQMNSLKTEDTAVYYCTTDCFWRLGGTTCYEHDAFDVWGQGTMVTVS
chain 2: DIQMTQSPSSLSASVGDRVTITCRASQAIATFLNWYQQKPGKAPKLLIYAASSLQSGVPSRFSGSGSGTDFTLTISSLQPEDFATYYCQQSYNSLHFGGGTKVEIK
B15: C1044 (protein)
chain 1: QVQLQESGPGLVKPSQTLSLTCTVSGGSISSGNYYLTWIRQPAGKGLEWIGHIYTSGSTNYNPSLKSRVTISVDTSMNQFSLKLSSVTAADTAVYYCARDIPPTWYFDLWGRGTLVTVSS
chain 2: SYELTQPPSVSVAPGKTARITCGGNNIGSKNVHWYQQKPGQAPVLVVYDDSDRPSGIPERFSGSNSGNTATLTISRVEAGDEAGYYCQVWDSTSDHLFWVFGGGTKLTVL
B16: C1045 (protein)
chain 1: B15 chain 1 with G27D, L36W, T37S, T59P, N62K, V73L, M77K, S85T, V94M, P103S
chain 2: B15 chain 2 with T21P, N25T, N26D, V46A, N68S, G84D, T93S, S94G, H96R, F98S
B17: C1038 (protein)
chain 1: QVQLVQSGAEVKKPGASVKVSCKASGYTFTSYYMHWVRQAPGQGLEWMGIINPSGGSTRYAQKFQGRVTMTRDTSTSTVYMELSSLRSEDTAVYYCAREGVGGTSYFDYWGQGTLVTVSS
chain 2: SYELTQPPSVSVAPGKTARITCGGNNIGSKSVHWYQQKPGQAPVLVVYDDSDRPSGIPERFSGSNSGNTATLTISRVEAGDEADYYCQVWDSSSDPYVFGTGTKVTVL
B18: C1039 (protein)
chain 1: QVQLVQSGAEVKKPGASVKVSCKASGYTFTSHYMHWVRQAPGQGLEWMGIINPRTRYAQMFQGRVSMNRDTSTSTVYMELSSLTSEDTAVYYCAREGLGATAYFDYWGQGTLVTVSS
chain 2: B17 chain 2 with R19G, N25S, N26D, T106S
B19: C1040 (protein)
chain 1: QVQLVESGGGVVQPGRSLRLSCAASGFSFINYNMHWVRQAPGKGLEWVAVIWYDGSNKYYADSVKGRFTISRDNSKNTLYLQMNSLRVEDTAVYYCARDPAITEAEIDYWGQGTLVTVSS
chain 2: DVVMTQSPLSLPVTLGQAASISCRSSQSLVHSDGNTYLNWFQQRPGQSPRRLIYRVSNRDSGVPDRFSASGSGTDFTLKISRVEAEDVGVYYCMQGTHWPWTFGQGTKVEIK

These binders were tested against SARS-CoV-2 Wuhan-Hu-1 spike receptor-binding domain (assay: ELISA binding EC50; higher = weaker binding; ELISA of recombinant human antibody on coated antigen, from 10 µg/ml in fourfold dilutions; four-parameter fit.).

| Binder | ELISA binding EC50 |
| --- | --- |
| B1 | 2.78 ng/mL |
| B2 | 2.77 ng/mL |
| B3 | 3.65 ng/mL |
| B4 | 4.55 ng/mL |
| B5 | 3.63 ng/mL |
| B6 | 1.02 ng/mL |
| B7 | 2.05 ng/mL |
| B8 | 2.46 ng/mL |
| B9 | 7.23 ng/mL |
| B10 | 2.3 ng/mL |
| B11 | 4.59 ng/mL |
| B12 | 3.8 ng/mL |
| B13 | 2.77 ng/mL |
| B14 | 2.89 ng/mL |
| B15 | 3.22 ng/mL |
| B16 | 2.57 ng/mL |
| B17 | 2.46 ng/mL |
| B18 | 2.61 ng/mL |
| B19 | 2.08 ng/mL |

Where a chain is given by its changes, count along the chain named. Recombinant human monoclonal antibodies (heavy:light variable regions). ELISA EC50 on the named antigen, from 10 µg/ml down; lower = stronger. No active / inactive call.
